# In the supplement of paper PMC3334620:
# Whole data set: some 33,000 sequences, median “E-score (-0.5 to 0.5)” near -0.021, cut for the highest 2% near 0.32. This is one part of the list.
# Molecular target: T1, Zap1 (UniProt P47043)
# T1 sequence: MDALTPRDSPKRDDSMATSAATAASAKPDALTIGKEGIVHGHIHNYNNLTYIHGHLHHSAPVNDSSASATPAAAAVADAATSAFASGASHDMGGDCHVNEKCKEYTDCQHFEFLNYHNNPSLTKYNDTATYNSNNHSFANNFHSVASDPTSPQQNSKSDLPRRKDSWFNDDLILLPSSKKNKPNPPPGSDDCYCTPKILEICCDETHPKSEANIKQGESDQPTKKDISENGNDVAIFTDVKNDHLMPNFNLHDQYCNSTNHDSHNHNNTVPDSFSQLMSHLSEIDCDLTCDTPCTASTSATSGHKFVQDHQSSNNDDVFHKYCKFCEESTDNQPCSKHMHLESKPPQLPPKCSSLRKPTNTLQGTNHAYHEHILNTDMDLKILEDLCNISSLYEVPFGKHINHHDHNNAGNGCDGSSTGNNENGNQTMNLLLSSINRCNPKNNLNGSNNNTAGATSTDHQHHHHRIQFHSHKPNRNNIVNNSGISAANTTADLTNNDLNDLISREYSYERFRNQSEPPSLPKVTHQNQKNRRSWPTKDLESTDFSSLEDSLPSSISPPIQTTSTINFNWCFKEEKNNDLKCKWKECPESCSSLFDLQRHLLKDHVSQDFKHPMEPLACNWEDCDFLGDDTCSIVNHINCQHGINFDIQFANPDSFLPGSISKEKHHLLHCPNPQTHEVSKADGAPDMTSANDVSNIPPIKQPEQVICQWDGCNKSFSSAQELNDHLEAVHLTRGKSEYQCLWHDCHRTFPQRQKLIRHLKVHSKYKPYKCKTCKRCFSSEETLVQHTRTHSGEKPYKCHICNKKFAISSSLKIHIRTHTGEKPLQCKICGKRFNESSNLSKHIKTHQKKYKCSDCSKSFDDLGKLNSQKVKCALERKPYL
# Assay: PBM E-score (8-mer binding enrichment) (E-score (-0.5 to 0.5)); higher = stronger / more preferred TF binding; most listed sequences are background and not binding sites
# Conditions: protein concentration: 200 nM; construct: GST-full length
# How it was run: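 E-scores (a modified Wilcoxon-Mann-Whitney statistic) were assigned by the Universal PBM Analysis Suite to every ungapped eight-base word pooled with its reverse complement. The input came from universal all-10-mer Agilent arrays made double-stranded by primer extension and probed with GST-tagged yeast transcription factors at about 100-200 nM. Fluorescent anti-GST detected bound protein, and masliner normalised the scans.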
row,Sequence,PBM E-score
1,GATATGCC,-0.235
2,CGAGAACA,-0.0673
3,GGAAGCCA,-0.444
4,CCGTGGTC,0.0847
5,CCGCACCA,-0.0775
6,CAGATAGA,-0.123
7,CCGAGCAA,-0.215
8,AGCTCACT,-0.157
9,CCAGCCAA,-0.0938
10,AGTTCGTG,0.038
11,CGTTGCTA,-0.0543
12,CGTGTTGA,-0.0441
13,CTTAACGA,-0.00709
14,AGCTATCG,-0.199
15,CGCGGCAA,-0.0744
16,GTACTTGA,-0.147
17,CCTCGTAG,0.135
18,ACTACATG,0.04
19,ATTTCATA,0.208
20,GTCAGGCA,-0.139
21,CAGTCGGC,-0.171
22,ACAAAGAG,-0.217
23,CGGATACG,-0.0689
24,ATCTACGG,-0.103
25,CAGTGATG,-0.142

row,Sequence,PBM E-score
1,AAAAAATC,0.126
2,CCGCTGAG,-0.208
3,GGGGGGAC,-0.28
4,ACTTGGAC,0.0174
5,ACCTTCTC,0.03
6,ACCTGCCG,-0.0789
7,TCAATGAA,0.00579
8,AGACATAG,-0.0994
9,AGCGGCTA,-0.0319
10,ATTGCGCC,-0.114
11,CTATGTGA,0.00092
12,CGAACATA,0.0418
13,AGAACACA,0.0853
14,AGGTTAGC,0.23
15,CAGTCAAG,0.0177
16,GCACCTAC,-0.157
17,TAGACCAA,0.0735
18,GGATCCCA,-0.0539
19,TACCAGAA,0.26
20,AGAAATGA,0.0828
21,ATGACCCC,0.385
22,ACCGACTC,-0.0769
23,CGTTCGAC,-0.255
24,CTATTACC,0.129
25,ACGGGTAC,0.231

row,Sequence,PBM E-score
1,GGGCTGAC,-0.0973
2,AAGTAGAG,-0.203
3,TAAAATGA,0.204
4,CCAGTGGC,-0.0278
5,AAGGTCGG,0.174
6,AATAAGTG,0.0312
7,AGCTTCTA,-0.283
8,ACACATCT,0.00083
9,CCCACTAA,0.173
10,CGTGGCAC,-0.0778
11,CCCAGCTC,-0.26
12,GAATCCTC,-0.189
13,CAGAGTCC,-0.0013
14,CCCTAGCC,-0.047
15,CTTTAGGC,-0.131
16,ACGTACAA,0.114
17,GCCCGGCA,-0.177
18,ATGGGAGG,0.0318
19,ATGACGCA,-0.0504
20,CTCAACGA,-0.128
21,CTTGTACC,0.0668
22,GCTTTCCC,-0.195
23,TACAGCGA,-0.129
24,CGGGTGTA,0.0123
25,ATTCAATG,0.00918

row,Sequence,PBM E-score
1,AAATGGCT,0.00044
2,AAGGTTAC,0.475
3,ATCGTCTC,-0.177
4,ACTACTAC,0.0865
5,AGCTCGTA,0.0234
6,TGCATGCA,0.00784
7,AAGGCATT,-0.172
8,CCTTATTA,0.0942
9,AAAGGTGT,-0.0367
10,CAGGACTC,-0.211
11,AATTGACT,-0.139
12,CCCCAGAG,-0.0329
13,ACCCACTC,0.0493
14,ATCGGCCA,-0.143
15,ACCAGCCA,-0.111
16,CACGTACC,-0.172
17,CGTGTCAC,0.0583
18,GACGACGC,-0.222
19,ATACGTCA,-0.0248
20,AGCGGTCG,-0.226
21,AAACTTGC,-0.0339
22,ATGTTCTA,0.0439
23,ACCTCCCA,-0.0877
24,ACCCACAA,0.353
25,GACTGACC,-0.0679

row,Sequence,PBM E-score
1,AGAGCAGC,-0.302
2,TCCATTCA,0.0213
3,CAACTCGG,0.0516
4,GCACTAGC,-0.207
5,CCGCCCTC,-0.0988
6,AGTGCCAT,-0.217
7,GACCAATA,0.0837
8,GGCTGCTA,-0.203
9,CCGTCGGA,-0.182
10,ACCATGCT,-0.0291
11,CAAGTTTC,-0.0424
12,CTAGCTGC,-0.249
13,AGGAGTAC,-0.0198
14,AATTTTAT,0.215
15,ACCAATGA,0.0415
16,CACCATTC,-0.0765
17,ATAGTTGG,-0.0799
18,AGTCCGAA,-0.0748
19,ACCGGGAC,-0.0187
20,GTGACGAA,0.0255
21,CCCAAGGG,0.326
22,AATAAGAG,-0.0531
23,TATGCTCA,-0.0266
24,ATGTCCAA,0.237
25,TGCGTAAA,0.0331

row,Sequence,PBM E-score
1,CCTTGCAA,-0.0371
2,GCTGTGAA,0.0749
3,ATTCAAAC,0.128
4,ACGGGAGA,-0.116
5,CCCAACCA,0.123
6,ACAGGTTA,0.398
7,AGTAGTCG,-0.0515
8,GTTCACCA,-0.0739
9,AATTCATC,-0.144
10,AATGAGCA,-0.0188
11,AGCCCCAG,-0.101
12,GCGAAGAC,-0.231
13,CGTTCTTC,0.00343
14,GAAAACCC,0.252
15,CGGGCATC,-0.212
16,CGGAAGTA,-0.0922
17,GATAATAA,0.0657
18,CCCCACCG,0.163
19,GATATTGC,0.00781
20,AGGTGCCG,-0.0629
21,GCCGAAGC,-0.31
22,CCGTAGAG,0.125
23,ATGCCCAG,-0.268
24,CGCTAAAC,-0.0872
25,CAGTAAGC,-0.0263

row,Sequence,PBM E-score
1,CTAGAGTC,-0.248
2,AGAGACTC,-0.172
3,CGAGTGCG,-0.106
4,AAGGCATC,-0.178
5,CTAAAGCA,-0.0501
6,ATCAGGTG,-0.0698
7,ATGTATCG,-0.0586
8,GTGTAAAC,0.0154
9,ACCGGGGA,-0.0428
10,ACACTGCA,-0.131
11,ACGTTTGG,-0.0703
12,AAGACGAC,-0.033
13,AGCCAACC,0.206
14,TGAGATCA,0.00696
15,CTTCTTCC,-0.273
16,ACCAGAAC,0.263
17,ATTTAACA,-0.0688
18,AGAAAGGA,-0.168
19,AATCAAAT,-0.0162
20,GAGAGGAA,-0.161
21,CGCGTCAG,-0.123
22,ATACTCAT,-0.174
